A short description of series [1]: Circular dichroism, variable temperature measurement (Tm) and spectra before and after heating. Type of series: physicochemical. The settings on record: His6-tagged, 0.5 mg/ml in PBS, CD at 221 nm, 20 to 90° C. Here is the method:
Circular dichroism (CD) analysis was carried out to determine the melting temperatures (Tm) and assess potential changes in the secondary structure of the inventive polypeptides as a result of the amino acid substitutions.
Purified His6-tagged Z variants were diluted to 0.5 mg/ml in PBS. For each diluted Z variant, a CD spectrum at 250-195 nm was recorded at 20° C. A variable temperature measurement (VTM) was performed to determine the Tm. In the VTM, the absorbance was measured at 221 nm while the temperature was raised from 20 to 90° C., with a temperature slope of 5° C./min. After the VTM, a second CD spectrum at 250-195 nm was recorded at 20° C. The CD measurements were performed on a Jasco J-810 spectropolarimeter (Jasco Scandinavia AB) using a cell with an optical path-length of 1 mm.

For a further series, the target named is T1, human CAIX (Homo sapiens, UniProt Q16790).
T1 construct: purchased R&D Systems 2188-CA
Put plainly: Biacore 2000 comparative kinetic analysis, CAIX. The settings on record: for Kd: comparative, not absolute; for KDInv/KDOrig: original set to 1.0; for KD(2w)/KD(0): KD after stability test relative to KD before. It is filed as binding. Here is the method:
(§1) A set of polypeptides showing improved stability properties in Example 12 were further assessed in terms of preserved binding capacities to their targets after introduction of alterations in the scaffold, as well as after having been subjected to the stability test, i.e. incubated at 37° C. for 2 weeks. Comparative kinetic constants (kon and koff) and affinities (KD) were determined using a Biacore 2000 instrument. The target proteins human HER2-Fc (R&D Systems, cat. no. 1129-ER-050), human PDGF-Rβ (R&D Systems, cat. no. 385-PR-100/CF), human FcRn (Biorbyt, cat. no. orb 84388) and human CAIX (R&D Systems, cat. no. 2188-CA), respectively, were immobilized on the carboxylated dextran layer surface of CM5 chips (GE Healthcare). The immobilization was performed using amine coupling chemistry according to the manufacturer's protocol and using HBS-EP as running buffer. One flow cell surface on the chip was activated and deactivated for use as blank during analyte injections. The immobilization level of target protein on the respective surface was approximately 850 RU for HER2, 2200 RU for PDGF-Rβ, 750 for FcRn and 580 RU for CAIX.
(§2) HBS-EP (HER2, PDGF-Rβ, CAIX) or a pH 6.0 Na2HPO4/citric acid buffer (126 mM Na2HPO4, 37 mM citric acid) (FcRn) was used as running buffer and the flow rate was 30 μl/min in the binding experiments performed at 25° C. as further described below.
The Z variants Z09782 (SEQ ID NO:36), Z17351 (SEQ ID NO:37), Z17355 (SEQ ID NO:39), and Z17359 (SEQ ID NO:41) targeting CAIX were diluted in running buffer to final concentrations of 30, 90 and 270 nM and injected for 5 minutes, followed by 15 minutes of dissociation in running buffer. Regeneration by three pulses of 10 mM glycin-HCl pH 3.0 followed by 5 min equilibration in running buffer was applied after each analyte injection.
(§3) Kinetic constants were calculated from the sensorgrams using the Langmuir 1:1 model (HER2, FcRn, CAIX) or the 1:1 binding with mass transfer model (PDGF-Rβ) of the BiaEvaluation software 4.1 (GE Healthcare). Curves of the blank surface were subtracted from the curves of the ligand surfaces and the data from the buffer cycles were subtracted from the data of the test-sample cycles to correct for any drift in signal.

The next series has as its target T2, human PDGF-Rβ (Homo sapiens, UniProt P09619).
T2 construct: purchased R&D Systems 385-PR-100/CF
Put plainly: Biacore 2000 comparative kinetic analysis, PDGF-Rβ. Type of series: binding. The settings on record: for Kd: comparative, not absolute; for KDInv/KDOrig: original set to 1.0; for KD(2w)/KD(0): KD after stability test relative to KD before. Here is the method:
as §1, §2
The Z variants Z15805 (SEQ ID NO:30), Z17343 (SEQ ID NO:31), and Z17344 (SEQ ID NO:32) targeting PDGF-R13 were diluted in running buffer to final concentrations of 6.67, 20, 60 and 180 nM and injected for 5 minutes, followed by 20 minutes of dissociation in running buffer. Regeneration by three pulses of 10 mM NaOH followed by 5 min equilibration in running buffer was applied after each analyte injection.
as §3

For a further series, the target named is T3, human FcRn (Homo sapiens, UniProt P55899).
T3 construct: purchased Biorbyt orb 84388
In words: Biacore 2000 comparative kinetic analysis, FcRn. Type of series: binding. Particulars: for KDInv/KDOrig: original set to 1.0; for ka / kd / Kd: pH 6.0; for Kd: comparative, not absolute. Here is the method:
Comparative kinetic constants (kon and koff) and affinities (KD) were determined using a Biacore 2000 instrument. The target proteins human HER2-Fc (R&D Systems, cat. no. 1129-ER-050), human PDGF-Rβ (R&D Systems, cat. no. 385-PR-100/CF), human FcRn (Biorbyt, cat. no. orb 84388) and human CAIX (R&D Systems, cat. no. 2188-CA), respectively, were immobilized on the carboxylated dextran layer surface of CM5 chips (GE Healthcare). The immobilization was performed using amine coupling chemistry according to the manufacturer's protocol and using HBS-EP as running buffer. One flow cell surface on the chip was activated and deactivated for use as blank during analyte injections.
as §2
Regeneration by three pulses of HBS-EP followed by 10 min equilibration in running buffer was applied after each analyte injection.
as §3

In the case of “Z17357: inventive CAIX binding Z variant; D36R, D37Q, S39E, D53E (AEAKYAKENLFAGWEISDLPNLTDYQRNAFIYKLWRQPEQSSELLSEAKKLNESQAPK; Engineered CAIX binding Z variant)”, in series [1], the “Tm (° C.)” value turned out to be 47 °C.

As to “Z17347: inventive FcRn binding Z variant; N52S, D53E (AEAKYAKEQDAAAHEIRWLPNLTFDQRVAFIHKLADDPSQSSELLSEAKKLSESQAPK; Engineered FcRn binding Z variant)”, the “Tm (° C.)” value in series [1] stood at 50 °C.

Take “Z17352: inventive CAIX binding Z variant; D36R, D37Q, S39E, N52S, D53E (AEAKYAKENLFAGWEISDLPNLTDYQRNAFIYKLWRQPEQSSELLSEAKKLSESQAPK; Engineered CAIX binding Z variant)”: in series [1], the “Tm (° C.)” value was 45 °C.

For “Z17355: inventive CAIX binding Z variant; D53E (AEAKYAKENLFAGWEISDLPNLTDYQRNAFIYKLWDDPSQSSELLSEAKKLNESQAPK; Engineered CAIX binding Z variant)”, the “Tm (° C.)” value in series [1] stood at 43 °C.

With “Z17351: inventive CAIX binding Z variant; N52S, D53E (AEAKYAKENLFAGWEISDLPNLTDYQRNAFIYKLWDDPSQSSELLSEAKKLSESQAPK; Engineered CAIX binding Z variant)”, in series [1], the “Tm (° C.)” value was determined as 40 °C. Also, in the series with human CAIX ((0) prior to stability test), the “ka” value was determined as 151000 M/s, the “kd” value amounted to 0.00263 s⁻¹, binding was characterised by a dissociation constant (Kd) of 18 nM and the KDInv/KDOrig was found to be 2.49. For the same substance, in the series with human CAIX ((2w) after 2 weeks at 37° C.), the “ka” value came out at 191000 M/s, the “kd” value came to 0.00286 s⁻¹, the Kd is 15 nM and the KDInv/KDOrig came out at 1.52. In addition, the “KD(2w)/KD(0)” value with human CAIX was 0.86.

Turning to “Z17359: inventive CAIX binding Z variant; N52S (AEAKYAKENLFAGWEISDLPNLTDYQRNAFIYKLWDDPSQSSELLSEAKKLSDSQAPK; Engineered CAIX binding Z variant)”, the “Tm (° C.)” value in series [1] was 41 °C. In the series with human CAIX ((0) prior to stability test), the “ka” value turned out to be 168000 M/s, the “kd” value came out at 0.00215 s⁻¹, binding was characterised by a dissociation constant (Kd) of 13 nM and the KDInv/KDOrig came out at 1.82. In the series with human CAIX ((2w) after 2 weeks at 37° C.), the “ka” value amounted to 178000 M/s, the “kd” value was determined as 0.00233 s⁻¹, binding was put at a Kd of 13 nM and the KDInv/KDOrig came to 1.32. Further, the “KD(2w)/KD(0)” value with human CAIX is on record as 1.02.

In the case of “Z09782: original Z variant polypeptide targeting CAIX, His6-tagged (AEAKYAKENLFAGWEISDLPNLTDYQRNAFIYKLWDDPSQSSELLSEAKKLNDSQAPK; His6 tag; Engineered CAIX binding Z variant) [reference compound]”, in series [1], the “Tm (° C.)” value stood at 43 °C. Besides, in the series with human CAIX ((0) prior to stability test), the “ka” value was found to be 208000 M/s, the “kd” value was 0.00146 s⁻¹, the Kd came to 7 nM and the KDInv/KDOrig is given as 1.0. Besides, in the series with human CAIX ((2w) after 2 weeks at 37° C.), the “ka” value amounted to 140000 M/s, the “kd” value is 0.00138 s⁻¹, the Kd is 9.9 nM and the KDInv/KDOrig amounted to 1.0. In the series with human CAIX, the “KD(2w)/KD(0)” value stood at 1.41.

Regarding “Z17360: inventive CAIX binding Z variant; D36R, D37Q, S39E, N52S (AEAKYAKENLFAGWEISDLPNLTDYQRNAFIYKLWRQPEQSSELLSEAKKLSDSQAPK; Engineered CAIX binding Z variant)”, the “Tm (° C.)” value in series [1] was determined as 46 °C.

As for “Z17341: inventive HER2 binding Z variant; N52S, D53E (AEAKYAKEMRNAYWEIALLPNLTNQQKRAFIRKLYDDPSQSSELLSEAKKLSESQAPK; Engineered HER2 binding Z variant)”, in series [1], the “Tm (° C.)” value is 66 °C.

Regarding “Z17343: inventive PDGF-Rβ binding Z variant; N52S, D53E (AEAKYAKELIEAAAEIDALPNLTRRQWNAFIKKLVDDPSQSSELLSEAKKLSESQAPK; Engineered PDGFRbeta binding Z variant)”, the “Tm (° C.)” value in series [1] was 46 °C. Moreover, in the series with human PDGF-Rβ ((0) prior to stability test), the “ka” value was found to be 4.8e+06 M/s, the “kd” value turned out to be 0.00177 s⁻¹, the Kd amounted to 0.37 nM and the KDInv/KDOrig stood at 1.90. In the series with human PDGF-Rβ ((2w) after 2 weeks at 37° C.), the “ka” value came out at 6.45e+06 M/s, the “kd” value stood at 0.00171 s⁻¹, the Kd is 0.264 nM and the KDInv/KDOrig was 0.93. Also, in the series with human PDGF-Rβ, the “KD(2w)/KD(0)” value is reported as 0.72. In the series with human PDGF-Rβ (compared with original Z variant), the “effect of scaffold substitutions on the affinity” value is “slightly improved”.

Turning to “Z10103: original Z variant polypeptide targeting FcRn, His6-tagged (AEAKYAKEQDAAAHEIRWLPNLTFDQRVAFIHKLADDPSQSSELLSEAKKLNDSQAPK; His6 tag; Engineered FcRn binding Z variant) [reference compound]”, the “Tm (° C.)” value in series [1] stood at 48 °C. Further, in the series with human FcRn ((0) prior to stability test), the KDInv/KDOrig turned out to be 1.0, the “ka” value amounted to 1.6e+06 M/s, the “kd” value amounted to 0.00456 s⁻¹ and binding was put at a Kd of 2.9 nM. For the same substance, in the series with human FcRn ((2w) after 2 weeks at 37° C.), the KDInv/KDOrig is 1.0, the “ka” value came to 3.15e+06 M/s, the “kd” value was 0.00575 s⁻¹ and the Kd came to 1.8 nM. Further, the “KD(2w)/KD(0)” value with human FcRn (KD after stability test relative to KD before) stood at 0.64.

Regarding “Z15805: original Z variant polypeptide targeting PDGF-Rβ, His6-tagged (AEAKYAKELIEAAAEIDALPNLTRRQWNAFIKKLVDDPSQSSELLSEAKKLNDSQAPK; His6 tag; Engineered PDGFRbeta binding Z variant) [reference compound]”, in series [1], the “Tm (° C.)” value turned out to be 48 °C. In the series with human PDGF-Rβ ((0) prior to stability test), the “ka” value worked out at 7.15e+06 M/s, the “kd” value came out at 0.00139 s⁻¹, the Kd turned out to be 0.19 nM and the KDInv/KDOrig was 1.0. Further, in the series with human PDGF-Rβ ((2w) after 2 weeks at 37° C.), the “ka” value came to 5.81e+06 M/s, the “kd” value amounted to 0.00166 s⁻¹, the Kd is 0.29 nM and the KDInv/KDOrig was 1.0. Besides, the “KD(2w)/KD(0)” value in the series with human PDGF-Rβ turned out to be 1.47.

Values taken from USRE49495E1, “Binding polypeptides having a mutated scaffold” (Affibody AB, priority 2013, dated 2023).
